According to patent publication US20150079114A1, “DR5 LIGAND DRUG CONJUGATES” (Seattle Genetics, Inc., priority 2012, published 2015):

Tests used:
[1] = system: Human colorectal adenocarcinoma cell line LoVo; test: LoVo xenograft model; format: in vivo, nude mice; details: 3 mgkg intravenous, Days 10, 17 and 24, FIG. 18
[2] = system: all tumor cell lines used for this assay (A375, NCI-H2122, HCT 15, SK-OV-3, LoVo, A2780, A549, Caki-2, HCT 116, NCI-H1975, MDA-MB-231, U-87 MG); test: In vitro cytotoxic activity, CellTiter Glo cell viability, all 12 cell lines; format: cell-based; details: 72 hr, with goat anti-human IgG Fc antibody, FIGS. 1-12
[3] = system: Human ovarian adenocarcinoma cell line SK-OV-3; test: SK-OV-3 xenograft model; format: in vivo, nude mice; details: 3 mgkg intravenous, Days 14, 21 and 28, FIG. 22
[4] = system: Human lung carcinoma cell line NCI-H1299; test: NCI-H1299 xenograft model; format: in vivo, nude mice; details: 3 mgkg intravenous, Days 14, 21 and 28, FIG. 19
[5] = system: Human lung adenocarcinoma cell line NCI-H1975; test: NCI-H1975 xenograft model; format: in vivo, nude mice; details: 3 mgkg intravenous, Days 13, 20 and 27, FIG. 20
[6] = system: Human colorectal adenocarcinoma cell line HCT-116; test: HCT 116 xenograft model; format: in vivo, nude mice; details: 3 mgkg intravenous, Days 11, 18 and 25, FIG. 16
[7] = system: Human lung adenocarcinoma cell line NCI-H2122; test: NCI-H2122 xenograft model; format: in vivo, nude mice; details: 1 mgkg intravenous, Days 15, 22 and 29, FIG. 21
[8] = system: Human glioblastoma cell line U-87 MG; test: U-87 MG xenograft model; format: in vivo, nude mice; details: 3 mgkg intravenous, Days 7, 14 and 21, FIG. 23
[9] = system: Human ovarian carcinoma cell line A2780; test: A2780 xenograft model; format: in vivo, nude mice; details: 3 mgkg intravenous, Days 11, 18 and 25, FIG. 14
[10] = system: Human renal cell carcinoma cell line Caki-2; test: Caki-2 xenograft model; format: in vivo; details: 3 mgkg intravenous, Days 18, 25 and 32, male nude mice, FIG. 15

Molecule | anti-tumor efficacy compared with hTRA-8-mcMMAF [1] | cytotoxic activity compared with hTRA-8-mcMMAF [2] | anti-tumor efficacy compared with hTRA-8-mcMMAF [3] | anti-tumor efficacy compared with hTRA-8-mcMMAF [4] | anti-tumor efficacy compared with hTRA-8-mcMMAF [5] | anti-tumor efficacy compared with hTRA-8-mcMMAF [6] | anti-tumor efficacy compared with hTRA-8-mcMMAF [7] | anti-tumor efficacy compared with hTRA-8-mcMMAF [8] | anti-tumor efficacy compared with hTRA-8-mcMMAF [9] | anti-tumor activities [10]
hB273-vc-MMAE: antibody drug conjugate of hB273 conjugated with mc-vc-MMAE, average drug loading about 3.5 to 4.5 (conjugate) heavy: EVQLVQSGAEVKKPGASVKVSCKASGYSFIGYFMNWMKQSPGMSLEWIGRFNPYNEDTFYNQKFKGKATLTVDKSTSTAYMELSSLRSEDTAVYFCARSAYYFDSGGYFDYWGQGTLVTVSSASTKGPSVFPLAPSSKSTSGGTAALGCLVKDYFPEPVTVSWNSGALTSGVHTFPAVLQSSGLYSLSSVVTVPSSSLGTQTYICNVNHKPSNTKVDKRV[sequence of human IgG1 Fc omitted] light: DIVMTQSPLSLPVTPGEPASISCRSSQSLVHSNKNTYLHWYLQKPGQSPQLLIYKVSNRFSGVPDRFSGSGSGTDFTLKISRVEAEDVGVYYCSQSTHVPWTFGPGTKVEIKRTVAAPSVFIFPPSDEQLKSGTASVVCLLNNFYPREAKVQWKVDNALQSGNSQESVTEQDSKDSTYSLSSTLTLSKADYEKHKVYACEVTHQGLSSPVTKSFNRGEC | more potent anti-tumor efficacy than hTRA-8-mcMMAF | more potent cytotoxic activity than hTRA-8-mcMMAF | more potent anti-tumor efficacy than hTRA-8-mcMMAF | more potent anti-tumor efficacy than hTRA-8-mcMMAF | more potent anti-tumor efficacy than hTRA-8-mcMMAF | more potent anti-tumor efficacy than hTRA-8-mcMMAF | more potent anti-tumor efficacy than hTRA-8-mcMMAF | more potent anti-tumor efficacy than hTRA-8-mcMMAF | more potent anti-tumor efficacy than hTRA-8-mcMMAF | none of the antibodies (hB273, hB273-vcMMAE, hB273-mcMMAF and hTRA-8-mcMMAF) showed any anti-tumor activities
hB273: humanized anti-DR5 antibody B273, heavy chain SEQ ID NO:9 (or residues 1-451), light chain SEQ ID NO:10 (antibody, synthetic anti-human death receptor 5 (DR5, TRAIL-R2) monoclonal antibody hB273 heavy chain; synthetic anti-human death receptor 5 (DR5, TRAIL-R2) monoclonal antibody hB273 light chain) heavy: EVQLVQSGAEVKKPGASVKVSCKASGYSFIGYFMNWMKQSPGMSLEWIGRFNPYNEDTFYNQKFKGKATLTVDKSTSTAYMELSSLRSEDTAVYFCARSAYYFDSGGYFDYWGQGTLVTVSSASTKGPSVFPLAPSSKSTSGGTAALGCLVKDYFPEPVTVSWNSGALTSGVHTFPAVLQSSGLYSLSSVVTVPSSSLGTQTYICNVNHKPSNTKVDKRV[sequence of human IgG1 Fc omitted] light: DIVMTQSPLSLPVTPGEPASISCRSSQSLVHSNKNTYLHWYLQKPGQSPQLLIYKVSNRFSGVPDRFSGSGSGTDFTLKISRVEAEDVGVYYCSQSTHVPWTFGPGTKVEIKRTVAAPSVFIFPPSDEQLKSGTASVVCLLNNFYPREAKVQWKVDNALQSGNSQESVTEQDSKDSTYSLSSTLTLSKADYEKHKVYACEVTHQGLSSPVTKSFNRGEC | – | – | – | – | – | – | – | – | – | none of the antibodies (hB273, hB273-vcMMAE, hB273-mcMMAF and hTRA-8-mcMMAF) showed any anti-tumor activities
